Test results: publication PMC3517456
Changes are numbered by the printed parent chain. These are yes or no findings as the source states them, for the method shown. Some binding calls cover weakened binding; strength is not graded here.

Chains of the proteins cited; added tags and fusions are not shown. Lines headed by an entry give the natural chain unless they say otherwise; changes in a name come on top.
UniProt P78543: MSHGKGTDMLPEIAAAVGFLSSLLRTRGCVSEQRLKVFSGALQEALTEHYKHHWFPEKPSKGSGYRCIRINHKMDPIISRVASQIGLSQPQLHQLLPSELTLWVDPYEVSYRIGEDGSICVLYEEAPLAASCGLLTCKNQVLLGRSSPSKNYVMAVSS
UniProt Q9UIV1: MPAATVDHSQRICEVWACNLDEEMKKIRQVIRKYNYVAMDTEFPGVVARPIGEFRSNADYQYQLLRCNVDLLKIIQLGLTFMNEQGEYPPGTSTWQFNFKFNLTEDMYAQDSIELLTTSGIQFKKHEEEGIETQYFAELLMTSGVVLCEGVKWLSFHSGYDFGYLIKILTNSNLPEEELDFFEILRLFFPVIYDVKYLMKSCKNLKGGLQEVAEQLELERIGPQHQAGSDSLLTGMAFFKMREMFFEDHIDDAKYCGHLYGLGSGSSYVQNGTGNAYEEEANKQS
UniProt Q9UFF9: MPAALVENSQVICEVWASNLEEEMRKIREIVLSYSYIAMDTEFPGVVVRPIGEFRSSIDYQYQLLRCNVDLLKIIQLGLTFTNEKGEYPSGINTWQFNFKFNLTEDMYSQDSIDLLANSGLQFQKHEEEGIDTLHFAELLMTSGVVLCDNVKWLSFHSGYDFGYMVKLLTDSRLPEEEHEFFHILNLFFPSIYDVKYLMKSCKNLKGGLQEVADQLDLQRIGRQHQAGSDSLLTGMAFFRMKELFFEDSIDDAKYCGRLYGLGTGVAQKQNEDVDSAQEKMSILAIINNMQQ

Legend:
Test in all cases: two-hybrid; yeast strain YRG-2; BTG2 or TOB1 fused to the GAL4 DNA-binding domain, Caf1a or Caf1b fused to the GAL4 activation domain; LacZ reporter under five GAL4 consensus sequences; β-galactosidase activity (Beta-GLO) normalised to OD600; triplicate
[1] = target: T1, Gal4-DNA binding domain-TOB1 (human) (UniProt P50616)
T1 sequence: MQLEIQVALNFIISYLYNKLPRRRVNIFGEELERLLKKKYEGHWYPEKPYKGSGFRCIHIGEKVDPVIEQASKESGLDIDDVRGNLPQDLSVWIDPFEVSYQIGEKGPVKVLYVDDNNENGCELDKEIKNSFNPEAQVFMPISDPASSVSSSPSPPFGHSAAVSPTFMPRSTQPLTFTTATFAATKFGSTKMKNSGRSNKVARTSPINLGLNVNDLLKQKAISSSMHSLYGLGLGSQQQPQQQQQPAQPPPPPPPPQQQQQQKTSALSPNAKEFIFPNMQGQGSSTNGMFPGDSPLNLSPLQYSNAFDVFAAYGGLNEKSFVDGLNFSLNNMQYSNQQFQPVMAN

[2] = target: T2, Gal4-DNA binding domain-TOB1 D95A (human) (UniProt P50616)
T2 sequence: T1 sequence with D95A

[3] = target: T3, Gal4-DNA binding domain-TOB1 E105A (human) (UniProt P50616)
T3 sequence: T1 sequence with E105A

[4] = target: T4, Gal4-DNA binding domain-TOB1 E98A (human) (UniProt P50616)
T4 sequence: T1 sequence with E98A

[5] = target: Gal4DB-HA-BTG2 (human) (UniProt P78543)
[6] = target: Gal4DB-HA-BTG2 H53A (human) (UniProt P78543)

| binding [1] | binding [2] | binding [3] | binding [4] | binding [5] | binding [6] | Substance |
| --- | --- | --- | --- | --- | --- | --- |
| binds | binds | binds | binds | – | – | Gal4AD-Caf1a (from UniProt Q9UIV1 1-285) (enzyme) |
| binds | binds | binds | binds | binds | no binding | Gal4AD-Caf1b (from UniProt Q9UFF9 1-292) (enzyme) |
